Out of some 45,000 compounds screened, about 65 (0.1%) were called active. Calls follow the shape of the dose curve; as a rule, active = well fitted activation curve with a large enough effect; inconclusive = small, poorly fitted or top-dose-only effect; inactive = no such curve, though single readings can be large or run the other way. Some of the results follow.
target: Galactocerebrosidase (Homo sapiens) (UniProt P54803); assay: A Novel Cell-Based Assay to Identify Small Molecules for B -Galactocerebrosidase; settings: 145M-Twi-hGALC-G270D cells (Twitcher mouse brain line with human GALC G270D), HMU-beta-Gal fluorescence, 48 h; series mostly up to 57.5 µM; activation: at the top concentration; also: 0% is about no effect; nearly all actives have a fitted effect of over 65% in size
Summary of the method: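 Live 145M-Twi cells (Twitcher mouse brain-derived, GALC-null) stably expressing human GALC-G270D, with a wild-type GALC line, were compound-treated. Residual GALC activity was then read as fluorescence from 0.1 mM final HMU-β-gal at pH 5.2; higher signal means activation.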

Chain of UniProt P54803 (P54803 whole entry, looked up): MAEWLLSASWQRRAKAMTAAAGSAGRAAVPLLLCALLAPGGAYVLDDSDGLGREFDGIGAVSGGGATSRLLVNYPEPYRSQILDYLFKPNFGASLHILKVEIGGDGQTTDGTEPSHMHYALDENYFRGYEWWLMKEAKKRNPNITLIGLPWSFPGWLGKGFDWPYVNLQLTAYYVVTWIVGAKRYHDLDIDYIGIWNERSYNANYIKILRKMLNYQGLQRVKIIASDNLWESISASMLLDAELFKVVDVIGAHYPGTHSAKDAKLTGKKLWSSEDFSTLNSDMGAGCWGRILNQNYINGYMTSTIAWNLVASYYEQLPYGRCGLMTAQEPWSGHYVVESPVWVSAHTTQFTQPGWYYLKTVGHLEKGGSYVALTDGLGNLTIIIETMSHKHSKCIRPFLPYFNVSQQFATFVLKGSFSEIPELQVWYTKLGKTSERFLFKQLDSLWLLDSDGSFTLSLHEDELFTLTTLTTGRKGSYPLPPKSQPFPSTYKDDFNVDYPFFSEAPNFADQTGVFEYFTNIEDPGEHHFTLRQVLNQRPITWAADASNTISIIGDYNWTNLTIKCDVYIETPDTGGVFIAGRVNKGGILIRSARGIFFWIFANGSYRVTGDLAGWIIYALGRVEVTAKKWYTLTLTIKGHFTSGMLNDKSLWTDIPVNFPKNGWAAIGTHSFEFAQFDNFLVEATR

activation, inactive:
CCOc1ccc(-c2cnc(NCc3ccc(OC)cc3OC)n2C)cc1 -10%, Cc1ccc(NC(=O)c2cccn2-c2nnc(N3CCCCC3)s2)cc1Cl -18.8%, O=C1c2oc3ccc(F)cc3c(=O)c2C(c2cccc([N+](=O)[O-])c2)N1CCCN1CCOCC1 (stereo unspecified) -13.2%, Cn1nc(C(=O)N2CCN(c3ccccc3F)CC2)c2c1-c1ccccc1SC2 0.496%, CCN(CC)CCNC(=O)Cn1ncc2c([nH]c3ccccc32)c1=O -7.62%, CCCCN(CC)CCCNC(=O)c1cc2c(-c3ccc(OC)c(OC)c3)nn(C)c2s1 -4.72%, COc1ccc(CNC(=O)COCc2cc(-c3cccs3)on2)cc1OC -5.14%, CCCCNC(=O)CCCn1c(=O)c2ccccc2n(Cc2ccccc2C)c1=O -4.6%, CCc1c(C)sc2c1CCN(Cc1ccc(F)cc1)C2c1ccccc1 (stereo unspecified) -10.4%, Cc1ccc(CSc2cn(CC(=O)N3CCCCC3)c3ccccc23)cc1 -2.93%, CCc1ccc(CN(C(=O)c2cc3ccccc3oc2=O)C2CCS(=O)(=O)C2)cc1 (stereo unspecified) -13.4%, Cc1ccc2nc(N(Cc3cccnc3)C(=O)C3COc4ccccc4O3)sc2c1 (stereo unspecified) -3.06%, CC(=O)c1ccc(NC(=O)c2ncn(-c3ccccc3)n2)cc1 -16.8%, COc1ccc(Cl)cc1NC(=O)CCC(=O)c1ccc(C)cc1 -17.9%, Cc1ccc(C2=Nc3ccccc3N(CC(=O)Nc3cccc(F)c3)C(=O)C2)cc1C -3.67%, COc1ccc(-c2noc(-c3ccc(NCc4ccccc4OC)c([N+](=O)[O-])c3)n2)cc1 -12.4%, CC(=O)c1[nH]c(C)c(C(=O)NCCc2ccc(C)cc2)c1C -13.6%, CN(C)C(=O)CNC(=O)Cc1ccccc1 -9.62%, CC(=O)Nc1cccc(C(=O)NCc2ccc3c(c2)CCN3C(C)=O)c1 -6.72%, CCn1cc(C(=O)NCCc2ccccc2)c(=O)c2cc(S(=O)(=O)N(C)C3CCCCC3)ccc21 -2.31%, CCOc1ccccc1N(C)C(=O)C1CCCN(c2ncnc3onc(-c4ccc(F)cc4)c23)C1 (stereo unspecified) -12.9%, Cc1c(CCNC(=O)Cc2ccccc2)sc2nc(-c3ccc(F)cc3)nn12 -15.3%, O=C(CN1CCN(Cc2ccc(Cl)cc2)C1=O)NCc1ccc(F)cc1 -2.15%, Cc1cc(C)c(NC(=O)CSc2nccn2Cc2ccco2)c(C)c1 -18.2%, Cc1ccc(NC(=O)CCCn2c(=O)c3cccn3c3cccnc32)c(Cl)c1 -8.69%, CN(C)CCCNc1oc(/C=C/c2ccc(F)cc2)nc1C#N -11.5%, O=c1oc2c3c(ccc2c2ccccc12)OCN(Cc1cccc(Cl)c1)C3 -17.4%, COc1ccc(-c2cc(=O)c3cc(OCC(=O)OC(C)C)ccc3o2)cc1 -10.2%, Cc1cc(C)c(NC(=O)CCn2c(=O)c3cccn3c3ccccc32)c(C)c1 -9.86%, CCN1CCN(C(c2ccc(SC)cc2)c2c(O)cc(C)n(Cc3ccco3)c2=O)CC1 (stereo unspecified) -16.2%, COc1ccccc1NC(=O)C1CCN(S(=O)(=O)c2ccc3[nH]c4c(c3c2)CCCCC4)CC1 -16.9%, O=C(COC(=O)C(Cc1c[nH]c2ccccc12)NC(=O)c1ccc(Cl)cc1)c1ccc(Cl)cc1 (stereo unspecified) -14.3%, Cc1nn(-c2ccccc2)c2c1cc1c(=O)n(C)c(=O)nc-1n2-c1cccc(Cl)c1 -13.4%, Oc1ccc(-c2nc(-c3ccccc3)c(-c3ccc(Br)cc3)[nH]2)cc1 8.7%, CN(C)CC/C=C1/c2ccccc2COc2ccc(CC(=O)O)cc21 -7.45%, CCc1c(C)sc2c1CCN(C(=O)Nc1cc(C)cc(C)c1)C2c1ccccc1 (stereo unspecified) -14.5%, COc1ccc(CNC(=O)CN2C(=O)COc3ccc(S(=O)(=O)N4CCC(C)CC4)cc32)cc1 -15.4%, COc1ccc(CCNC(=O)c2oc(=O)c3ccccc3c2-c2ccccc2)cc1OC -12%, Cc1ccc(NC(=O)Cn2c(=O)n(CCCCC(=O)NCCc3ccc(Cl)cc3)c(=O)c3ccccc32)cc1 -13.2%, COCCCN1C(=O)c2[nH]nc(-c3ccccc3O)c2C1c1ccc(OCc2ccccc2)cc1 (stereo unspecified) -16.7%, COC(=O)c1sc(N2C(=O)c3oc4ccccc4c(=O)c3C2c2ccc(O)cc2)nc1C (stereo unspecified) -5.46%, COc1cc(NC(=O)CCS(=O)(=O)c2nc(-c3ccc4c(c3)OCO4)cc(C(F)(F)F)n2)cc(OC)c1OC -12.7%, CCCCNC(=O)C1CCC(CNS(=O)(=O)c2ccc(C)cc2)CC1 (stereo unspecified) -15.4%, Cc1nc(NC(=O)c2c(-c3ccccc3)c(-c3ccccc3)nn(C)c2=O)sc1C -3.37%, COCCCNC(=O)CSc1nc2cc3c(cc2c(=O)n1CCCCCC(=O)NCc1ccc2c(c1)OCO2)OCO3 -3.69%, Cc1cccc(NC(=O)c2sc3nc4c(cc3c2N)CN(C(C)C)CC4)c1 -8.06%, CCc1ccc(S(=O)(=O)Nc2ccc3[nH]c(=O)sc3c2)cc1 -17.4%, CCC1CCCCN1C(=O)CSc1nc(-c2ccc(OC)c(OC)c2)cc(C(F)(F)F)n1 (stereo unspecified) -12.7%, CC1=C(C(=O)OC2CCCCCC2)C(c2cccc(F)c2F)CC(=O)N1 (stereo unspecified) 9.54%, Cc1cccc(N2CCN(C(=O)CN3C(=O)COc4ccc(S(=O)(=O)N5CCOCC5)cc43)CC2)c1C -5.64%, CC(=O)N1CCc2cc(Br)cc(S(=O)(=O)CCC(=O)N3CCN(c4ccccc4)CC3)c21 -4.86%, Cc1nc2cc(C(=O)NC3CCCCCC3)ccc2n1-c1ccc(Br)cc1 -23.2%, COc1cc(NC(=O)CCCc2nnc3n(CC(C)C)c(=O)c4sccc4n23)cc(OC)c1 -6.4%, Cc1ccc(Cn2c(SCC(=O)NCc3ccccc3Cl)nc3ccsc3c2=O)cc1 -16.2%, Fc1ccc(Nc2nc(SCc3ccccc3F)nc3ccccc23)cc1 -14.9%, CCOC(=O)c1cc2c(=O)n3ccccc3nc2n(Cc2ccco2)c1=NC(=O)c1cccc(F)c1 -3.45%, Cc1cc([N+](=O)[O-])ccc1NC(c1nnc(-c2ccccc2)o1)c1ccccc1F (stereo unspecified) -6.77%, CN(C)S(=O)(=O)c1ccc2c(c1)N(CC(=O)Nc1ccc(F)cc1)C(=O)CS2 -16.2%, CC(C)c1ccc(NS(=O)(=O)c2ccc3[nH]cc(C(=O)NCC4CCCO4)c(=O)c3c2)cc1 (stereo unspecified) -11.2%, Cc1cc(-c2ccc(C)c(S(=O)(=O)NCCc3ccc(S(N)(=O)=O)cc3)c2)on1 4.57%, CCOc1ccc2nc(N3CCCC(C(=O)Nc4ccc(OC)c(Cl)c4)C3)sc2c1 (stereo unspecified) -6.58%

Source: PubChem BioAssay AID1159614 (National Center for Advancing Translational Sciences (NCATS), 2016)
